Out of some 45,000 compounds screened, about 65 (0.1%) were called active. Calls come from the whole dose curve; as a rule, active = well fitted activation curve with a large enough effect; inconclusive = small, poorly fitted or top-dose-only effect; inactive = no such curve, though single readings can be large or run the other way. Some of the results follow.
Target: Galactocerebrosidase (Homo sapiens) (UniProt P54803)
Assay: A Novel Cell-Based Assay to Identify Small Molecules for B -Galactocerebrosidase; note: 0% is about no effect; nearly all actives have a fitted effect of over 65% in size
Conditions: 145M-Twi-hGALC-G270D cells (Twitcher mouse brain line with human GALC G270D), HMU-beta-Gal fluorescence, 48 h; series mostly up to 57.5 µM; activation: at the top concentration
Summary of the method: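 Fluorescence readout: HMU-β-gal cleavage by mutant GALC (0.1 mM final, citrate/phosphate pH 5.2 with 1 mg/mL taurocholate), stopped with carbonate/bicarbonate plus Triton X-100. Cells: murine Twitcher 145M-Twi expressing human G270D GALC; qHTS for activators.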

UniProt P54803, sequence (P54803 whole entry, looked up): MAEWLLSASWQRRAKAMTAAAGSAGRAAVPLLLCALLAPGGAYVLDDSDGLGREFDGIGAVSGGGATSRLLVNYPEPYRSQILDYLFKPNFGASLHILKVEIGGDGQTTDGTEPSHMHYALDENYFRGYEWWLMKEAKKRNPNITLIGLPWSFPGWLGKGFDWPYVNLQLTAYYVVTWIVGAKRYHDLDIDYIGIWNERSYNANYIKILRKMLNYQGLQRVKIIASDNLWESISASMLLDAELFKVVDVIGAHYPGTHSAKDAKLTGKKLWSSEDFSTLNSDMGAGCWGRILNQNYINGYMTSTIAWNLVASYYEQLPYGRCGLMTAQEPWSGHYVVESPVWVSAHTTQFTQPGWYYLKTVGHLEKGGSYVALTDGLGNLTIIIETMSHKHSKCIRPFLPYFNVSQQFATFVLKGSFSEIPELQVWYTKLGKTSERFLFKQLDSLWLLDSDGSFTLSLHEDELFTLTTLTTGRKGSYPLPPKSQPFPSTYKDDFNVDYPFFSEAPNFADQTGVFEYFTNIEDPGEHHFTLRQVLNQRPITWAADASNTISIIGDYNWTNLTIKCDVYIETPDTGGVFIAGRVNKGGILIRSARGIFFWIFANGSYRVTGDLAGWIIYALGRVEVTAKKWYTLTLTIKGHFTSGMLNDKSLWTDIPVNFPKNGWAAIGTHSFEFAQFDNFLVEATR

activation, inactive:
CC(C)NC(=O)N1CCN(S(=O)(=O)c2ccc3c(ccn3C)c2)CC1 5.2%, CCCS(=O)(=O)c1nc(S(=O)(=O)c2ccc(C)cc2)c(N(C)Cc2ccccc2)s1 -8.14%, Cc1ccccc1C(=O)Nc1nnc2n1CCS2 -2.64%, CCCC(=O)NC(C)c1nc2ccccc2n1Cc1ccccc1 (stereo not given) -5.71%, Cc1ccc(C(=O)c2cn(CC(=O)NCc3ccccc3Cl)c3nc(C)ccc3c2=O)cc1 -10.6%, Cc1cc(C(=O)N2CCN(c3cccc(C)c3C)CC2)c2c(C)nn(-c3ccccc3)c2n1 -28.1%, CCOC(=O)c1c(C)[nH]c(C)c1S(=O)(=O)N1CCCC(C(=O)NCc2cccc(OC)c2)C1 (stereo not given) -10.9%, COc1cccc(-c2ccc3c(N)c(C(=O)Nc4cc(C(F)(F)F)ccc4OC)sc3n2)c1 -8.51%, CCOC(=O)c1sc(NC(=O)C2c3ccccc3Oc3ccccc32)c(C#N)c1C -44.2%, Cc1cccc(OCC(=O)Nc2cc(-c3ccccc3F)nn2-c2ccccc2)c1 -16.3%, Cc1c(C(=O)N(C)C)sc2c1c(=O)n(-c1ccc(Cl)cc1)c(=O)n2Cc1ccccc1F -10.7%, COc1ccccc1CNC(=O)CCC1N=C2c3ccccc3N=C(SCC(=O)Nc3ccc(N(C)C)cc3)N2C1=O (stereo not given) -7.41%, COc1ccc(S(=O)(=O)N2CCCN(CC(=O)Nc3ccc(OC)cc3OC)CC2)cc1 -19.1%, Cc1nc2nc(SCC(=O)NC3CCCCC3)nn2c(C)c1Cc1ccccc1Cl -3.77%, COC(=O)c1ccc2c(c1)N(Cc1ccc(Cl)cc1)C(=O)c1ccccc1S2 -18.2%, COc1cc(NC(=O)N2CCC(CN3CCOCC3)CC2)cc(OC)c1OC -14%, CC(C)c1ccc(Nc2ncnc3onc(-c4ccc(F)cc4)c23)cc1 -19.5%, COc1ccc(OC)c2sc(N3CCN(C(=O)CCS(=O)(=O)c4ccc(F)cc4)CC3)nc12 -9.31%, Cc1cc(Cl)ccc1NC(=O)Cn1nnc2sc(-c3ccccc3)cc2c1=O -20.8%, CCCn1c2ccccc2c2cnn(CC(=O)N3CCCC(C)C3)c(=O)c21 (stereo not given) -14.3%, COc1cccc(N2CCN(C(=O)c3cc4c(=O)oc5ccc(C)cc5c4s3)CC2)c1 0.628%, CCCCn1nc(NC(=O)c2cccc(Cl)c2)c2cc3cccc(C)c3nc21 -18.2%, Cc1ccc(-n2ncc(C(=O)NCCN3CCCC3)c2C2CCN(C(=O)OC(C)(C)C)CC2)cc1C -8.6%, CCc1ccccc1-n1c(C)nc2cc(C(=O)NCCc3ccc(Cl)cc3)ccc21 -0.76%, O=C(NCCCc1nc2ccccc2n1Cc1ccc(Cl)cc1)C1CCCCC1 5.39%, Cc1ccc(CNC(=O)C2CCN(S(=O)(=O)c3cn(C)cn3)CC2)cc1 -14.5%, COCc1c(C(C)C)nc(C(C)C)c(/C=C/[C@@H](O)C[C@@H](O)CC(=O)O)c1-c1ccc(F)cc1 -7.41%, CC(C)OCCCNC(=O)CN1C(=O)COc2ccc(S(=O)(=O)N3CCCCCC3)cc21 -6.52%, COCCCNC(=O)CCc1c(C)nc2nc(-c3cc(OC)cc(OC)c3)nn2c1C -8.88%, CC(C)N(Cc1ccccc1)S(=O)(=O)c1ccc(-c2cc(C(F)(F)F)on2)s1 -6.55%, Cc1c2cnn(CC(=O)NCc3ccc(F)cc3)c(=O)c2c(C)n1Cc1cccc(Cl)c1 -5.7%, CCOCCCN(Cc1ccco1)S(=O)(=O)c1cc2c(cc1Cl)NC(=O)CO2 -2.83%, Cc1ccccc1-c1noc(-c2ccc(N3CCCCC3)c([N+](=O)[O-])c2)n1 -15.3%, COc1cc(NC(=O)CSc2nnc(C)n3c2cc2oc(C)cc23)cc(OC)c1 -4.98%, CCCCN(CC)CCCNC(=O)CS(=O)(=O)Cc1nc(-c2ccc(C)cc2)oc1C -20.6%, CCOc1ccc(CCNC(=O)C2CCN(C(=O)N3CC(CC)Oc4ccccc43)CC2)cc1 (stereo not given) -8.78%, O=C(Nc1nnc(N2CCCCCC2)s1)Nc1cc(F)ccc1F -12.7%, CCCOc1ccc(C(=O)Nc2ccc3oc(-c4ccncc4)nc3c2)cc1 -19%, CCCCOC(=O)c1c(N)n(-c2ccc(OC)cc2OC)c2nc3ccccc3nc12 -10.3%, CCC(Sc1nnc2c(n1)[nH]c1ccccc12)C(=O)Nc1nnc(C(C)C)s1 (stereo not given) -22.4%, Cn1nnc2c(N3CCN(c4cccc(Cl)c4)CC3)ncnc21 -16.1%, COCCN(Cc1cccs1)S(=O)(=O)c1cc(-c2cc(C)no2)ccc1C 6.13%, COc1cccc(CNC(=O)CCS(=O)(=O)c2ccc3c(c2)oc(=O)n3C)c1 -19%, COCCCNC(=O)c1c(NC(=O)Cc2coc3c(C)c(C)ccc23)sc2c1CCCC2 11.3%, O=C(NC1CC(=O)N(c2cccc(F)c2)C1)c1cccs1 (stereo not given) -4.59%, CCOc1ccc(C(=O)NCc2ccc3c(c2)CCN3C(=O)c2ccc(Cl)cc2)cc1 10.2%, CC(C)N(C(=O)Cn1cc(SCC(=O)Nc2ccccc2F)c2ccccc21)C(C)C -6.48%, Cc1cccc(-n2ncc(C(=O)N3CCOCC3)c2C2CCN(C(=O)OC(C)(C)C)CC2)c1 6.27%, Cc1ccc(CCNS(=O)(=O)c2cc(-c3cc(C)no3)ccc2C)cc1 -13.3%, Cc1ccc(C(=O)c2cc(O)c(O)c([N+](=O)[O-])c2)cc1 -8.44%, Cc1ccc(C(C)C)c(OCCSc2nc(-c3ccccc3F)nc3cc(=O)[nH]n23)c1 -12.7%, CCc1ccc(NC(=O)c2ccc(CN3CC(=O)N4CCCCC4C3=O)cc2)cc1 (stereo not given) -40%, CCc1ccc(OCC(=O)NC(Cc2c[nH]c3ccccc23)C(=O)O)cc1 (stereo not given) -11.4%, CCCN(C(=O)c1cc2c(=O)oc3ccccc3c2s1)c1ccc(CC)cc1 0.469%, CC(C)C(=O)Nc1ccc2nc(SCC(=O)N3CCCC3)sc2c1 -11.4%, Cc1ccccc1Nc1cc(C(=O)NCCCN2CCN(c3cccc(Cl)c3)CC2)c2ccccc2n1 4.29%, Cc1c(Cl)cccc1NC(=O)N1CCN(C(=O)c2nsc3ccccc23)CC1 -18%, CN(Cc1ccccc1)C(=O)c1cn(C)c2ccc(S(=O)(=O)N3CCCCC3)cc2c1=O -4%, COc1cccc(OCc2nc3ccccc3n2CCOc2ccc(C)cc2)c1 -13.8%, COc1cccc(-n2c(=O)c3c(C)c(C)sc3n(CC(=O)NCCc3ccc(OC)c(OC)c3)c2=O)c1 -7.7%, COc1cccc(CNC(=O)c2cc(C)nc3c2c(C)nn3-c2ccc(C)cc2)c1 -10.8%, COc1cc(OC)c(NC(=O)C2CCN(S(=O)(=O)c3c(C)noc3/C=C/c3c(C)cc(C)cc3C)CC2)cc1Cl -11%, COc1ccc(OC)c(NC(=O)CSc2ccc(-c3cccs3)nn2)c1 -11.4%, Cc1ccc(Cn2c(C(=O)O)c(CNCc3ccc(OC(C)C)cc3)c3ccc(C)cc32)cc1 -4.98%, CC12CN3CC(c4ccccc4)(CN(C1)C3c1ccc(O)cc1)C2=O (stereo not given) -15.6%, CCn1c(C(=O)NCc2ccc(F)cc2)cc2oc3ccccc3c21 -16.4%, Cn1c(=O)oc2cc(S(=O)(=O)NC(Cc3ccccc3)C(=O)Nc3ccc(F)cc3)ccc21 (stereo not given) -7%, CCOC(=O)c1c(NC(=O)C(C)Sc2cn(CCNC(=O)c3c(F)cccc3F)c3ccccc23)sc2c1CCC2 (stereo not given) -9.58%, COc1ccc2[nH]cc(CCNC(C)=O)c2c1 -12.7%, O=C(CSc1nc2cc(C(=O)NC3CCCC3)ccc2c(=O)n1CC1CCCO1)c1cccc(Cl)c1 (stereo not given) 4.64%, Cc1ccc(C)c2sc(NC(=O)c3ccc(S(=O)(=O)N4CCC(C)CC4)cc3)nc12 -27.3%, CCN1C(=O)c2ccccc2S(=O)c2ccc(C(=O)NCc3ccc(OC)cc3)cc21 (stereo not given) -9.03%, COc1ccc(CCNc2oc(/C=C/c3cc(OC)c(OC)c(OC)c3)nc2C#N)cc1OC 0.409%, CCOC(=O)c1ccc(N2C(=O)c3n[nH]c(-c4cccs4)c3C2c2ccc(OCC)cc2)cc1 (stereo not given) -14.2%, COc1ccc(OC)c(CCNC(=O)CS(=O)(=O)Cc2nc(-c3cccc(Cl)c3)oc2C)c1 -36.8%, COc1ccccc1NC(=O)CSc1nnc(N)s1 -15.3%, Cc1ccc(Sc2c(C)nn(-c3ccccc3)c2OC(=O)C(C)(C)C)cc1 -18.1%, COC(=O)c1c(NC(=O)C(C)Oc2ccc(Cl)c(C)c2)sc(C)c1C (stereo not given) -18.9%, COc1ccc(OC)c(NS(=O)(=O)c2cc3c(cc2Cl)N(C(C)=O)CCO3)c1 3.76%, CCOc1ccc(NC(=O)CC2C(=O)N(c3ccc(F)cc3)C(=O)N2Cc2ccc(OC)c(OC)c2)cc1 (stereo not given) -17.8%, CCc1ccc(CNC(=O)c2cc(=O)[nH]c3ccc(S(=O)(=O)N4CCCCC4)cc23)cc1 -15.6%, COc1ccc(CC(=O)Nc2ccc3nc(Nc4ccc(OC)cc4)cc(C)c3c2)cc1 -10%, CCOC(=O)c1c(NC(=O)c2cc(C(C)C)on2)sc(C(C)=O)c1C -23.4%, CCOC(=O)c1c(C)oc2nc(C)nc(Nc3ccc(C)c(Cl)c3)c12 6.56%, Cc1c(Cl)ccc2sc(N3CCN(C(=O)C(C)C)CC3)nc12 -18.6%, CN(C)c1ccc(CN(Cc2ccco2)C(=O)c2ccc(C(C)(C)C)cc2)cc1 -15.2%, Cc1ccc(-c2nc3nc(C)cc(N4CCN(c5cccc(C)c5C)CC4)n3n2)cc1 -15.2%, COc1ccc(/C=C\c2onc(C)c2S(=O)(=O)N2CCC(C(=O)Nc3ccc(F)cc3F)CC2)cc1 -0.957%, CCOc1ccccc1NC(=O)NCc1ccc2c(c1)CCN2C(=O)c1ccccc1 -19.9%, Cc1oc(-c2cccc(Cl)c2)nc1CSc1nncn2c1cc1occc12 -22%, Cc1ccc2c(c1Br)C(O)(CC(=O)c1ccc(F)cc1)C(=O)N2 (stereo not given) -2.11%, O=C(NCc1cccs1)c1ccc2c(=O)n3nc(Nc4ccccc4)sc3nc2c1 -12.3%, CCOC(=O)Cn1c(=O)n(CC2CCCO2)c2nc(-c3ccccc3OC)nc(C(N)=O)c21 (stereo not given) -21.6%, O=c1c2sc3ccccc3c2n(Cc2cccc(F)c2)c(=O)n1Cc1ccccc1 2.27%, O=C(NC1CC(=O)N(c2ccc(F)cc2)C1)c1ccc(S(=O)(=O)N2CCCCC2)cc1 (stereo not given) 0.388%

Reference: PubChem BioAssay AID1159614 (National Center for Advancing Translational Sciences (NCATS), 2016)
